# Some of the results follow.
# Legend:
# Test in all cases: glycan array binding signal (z-score within array); higher = stronger binding
# Conditions in all cases: glycan notation: IUPAC condensed, linker removed
# [1] = target: GlcNAc(a1-4)Gal(b1-4)GalNAc
# Summary of the method: (§1)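 Glycan array data came from 3228 arrays in the Consortium for Functional Glycomics database, and only arrays with an available protein sequence were kept. Glycan names were put into IUPAC-condensed notation, and columns mapping to the same glycan were averaged. The binding signal is a within-array Z-score, averaged across arrays of one protein sequence run at different concentrations or buffers and across linkers. A negative Z-score can be read as non-binding.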
# [2] = target: GlcNAc(a1-4)Gal(b1-4)GlcNAc
# Summary of the method: as §1
# [3] = target: GlcNAc(a1-4)Gal(b1-4)GlcNAc(b1-3)Gal(b1-4)Glc
# Summary of the method: as §1
# [4] = target: GlcNAc(a1-4)Gal(b1-4)GlcNAc(b1-3)Gal(b1-4)GlcNAc
# Summary of the method: as §1
# [5] = target: GlcNAc(a1-4)Gal(b1-4)GlcNAc(b1-3)Gal(b1-4)GlcNAc(b1-3)Gal(b1-4)GlcNAc
# Summary of the method: as §1
# [6] = target: GlcNAc(a1-4)Gal(b1-4)GlcNAc(b1-3)Gal(b1-4)[Fuc(a1-3)]GlcNAc(b1-3)Gal(b1-4)[Fuc(a1-3)]GlcNAc
# Summary of the method: as §1
# [7] = target: GlcNAc(a1-6)Gal(b1-4)GlcNAc
# Summary of the method: as §1
# [8] = target: GlcNAc(b1-2)Gal(b1-3)GalNAc
# Summary of the method: as §1
# [9] = target: GlcNAc(b1-2)Man(a1-3)[GlcNAc(b1-2)Man(a1-6)]Man(b1-4)GlcNAc(b1-4)GlcNAc
# Summary of the method: as §1
# [10] = target: GlcNAc(b1-2)Man(a1-3)[GlcNAc(b1-2)Man(a1-6)]Man(b1-4)GlcNAc(b1-4)[Fuc(a1-6)]GlcNAc
# Summary of the method: as §1
# [11] = target: GlcNAc(b1-2)Man(a1-3)[GlcNAc(b1-4)][GlcNAc(b1-2)Man(a1-6)]Man(b1-4)GlcNAc(b1-4)GlcNAc
# Summary of the method: as §1
# [12] = target: GlcNAc(b1-2)[GlcNAc(b1-4)]Man(a1-3)[GlcNAc(b1-2)Man(a1-6)]Man(b1-4)GlcNAc(b1-4)GlcNAc
# Summary of the method: as §1
# [13] = target: GlcNAc(b1-2)[GlcNAc(b1-4)]Man(a1-3)[GlcNAc(b1-4)][GlcNAc(b1-2)Man(a1-6)]Man(b1-4)GlcNAc(b1-4)GlcNAc
# Summary of the method: as §1
# [14] = target: GlcNAc(b1-2)[GlcNAc(b1-4)]Man(a1-3)[GlcNAc(b1-4)][GlcNAc(b1-2)[GlcNAc(b1-6)]Man(a1-6)]Man(b1-4)GlcNAc(b1-4)GlcNAc
# Summary of the method: as §1
# [15] = target: GlcNAc(b1-2)[GlcNAc(b1-6)]Man(a1-6)[GlcNAc(b1-2)Man(a1-3)]Man(b1-4)GlcNAc(b1-4)GlcNAc
# Summary of the method: as §1
# [16] = target: GlcNAc(b1-2)[GlcNAc(b1-6)]Man(a1-6)[GlcNAc(b1-2)Man(a1-3)][GlcNAc(b1-4)]Man(b1-4)GlcNAc(b1-4)GlcNAc
# Summary of the method: as §1
# GlcNAc(b1-3)Gal = target: GlcNAc(b1-3)Gal
# Summary of the method: as §1
# [17] = target: GlcNAc(b1-3)Gal(b1-3)GalNAc
# Summary of the method: as §1
# GlcNAc(b1-3)Gal(b1-4)Glc = target: GlcNAc(b1-3)Gal(b1-4)Glc
# Summary of the method: as §1
# [18] = target: GlcNAc(b1-3)Gal(b1-4)GlcNAc
# Summary of the method: as §1
# [19] = target: GlcNAc(b1-3)Gal(b1-4)GlcNAc(b1-3)Gal(b1-4)GlcNAc
# Summary of the method: as §1
# GlcNAc(b1-3)GalNAc = target: GlcNAc(b1-3)GalNAc
# Summary of the method: as §1
# GlcNAc(b1-3)Man = target: GlcNAc(b1-3)Man
# Summary of the method: as §1
# [20] = target: GlcNAc(b1-3)[GlcNAc(b1-4)][GlcNAc(b1-6)]GlcNAc
# Summary of the method: as §1
# [21] = target: GlcNAc(b1-3)[GlcNAc(b1-6)]Gal(b1-4)GlcNAc
# Summary of the method: as §1
# [22] = target: GlcNAc(b1-3)[GlcNAc(b1-6)]GalNAc
# Summary of the method: as §1
# [23] = target: GlcNAc(b1-3)[GlcNAc(b1-6)]GlcNAc(b1-4)GlcNAc
# Summary of the method: as §1
# [24] = target: GlcNAc(b1-4)Gal(b1-4)GlcNAc
# Summary of the method: as §1
# GlcNAc(b1-4)GlcNAc = target: GlcNAc(b1-4)GlcNAc
# Summary of the method: as §1
# [25] = target: GlcNAc(b1-4)GlcNAc(b1-4)GlcNAc
# Summary of the method: as §1
# [26] = target: GlcNAc(b1-4)GlcNAc(b1-4)GlcNAc(b1-4)GlcNAc(b1-4)GlcNAc
# Summary of the method: as §1
# [27] = target: GlcNAc(b1-4)GlcNAc(b1-4)GlcNAc(b1-4)GlcNAc(b1-4)GlcNAc(b1-4)GlcNAc
# Summary of the method: as §1
# [28] = target: GlcNAc(b1-4)[GlcNAc(b1-6)]GalNAc
# Summary of the method: as §1
# [29] = target: GlcNAc(b1-6)Gal(b1-4)GlcNAc
# Summary of the method: as §1
# GlcNAc(b1-6)GalNAc = target: GlcNAc(b1-6)GalNAc
# Summary of the method: as §1
# GlcNAc3Prop(b1-4)GlcNAc = target: GlcNAc3Prop(b1-4)GlcNAc
# Summary of the method: as §1
# [30] = target: GlcNAc6S(b1-3)Gal(b1-4)GlcNAc
# Summary of the method: as §1
binder,measurement,setting,value
"ConA (Canavalia ensiformis), P02866 (protein) MAISKKSSLFLPIFTFITMFLMVVNKVSSSTHETNALHFMFNQFSKDQKDLILQGDATTGTDGNLELTRVSSNGSPQGSSVGRALFYAPVHIWESSAVVASFEATFTFLIKSPDSHPADGIAFFISNIDSSIPSGSTGRLLGLFPDANVIRNSTTIDFNAAYNADTIVAVELDTYPNTDIGDPSYPHIGIDIKSVRSKKTAKWNMQNGKVGTAHIIYNSVDKRLSAVVSYPNADSATVSYDVDLDNVLPEWVRVGLSASTGLYKETNTILSWSFTSKLKSNEIPDIATVV",glycan array binding signal (z-score),[1],-0.232
same,glycan array binding signal (z-score),[2],-0.086
same,glycan array binding signal (z-score),[3],-0.219
same,glycan array binding signal (z-score),[4],-0.049
same,glycan array binding signal (z-score),[5],-0.156
same,glycan array binding signal (z-score),[6],0.053
same,glycan array binding signal (z-score),[7],-0.285
same,glycan array binding signal (z-score),[8],-0.286
same,glycan array binding signal (z-score),[9],1.61
same,glycan array binding signal (z-score),[10],0.102
same,glycan array binding signal (z-score),[11],-0.108
same,glycan array binding signal (z-score),[12],-0.175
same,glycan array binding signal (z-score),[13],-0.281
same,glycan array binding signal (z-score),[14],-0.227
same,glycan array binding signal (z-score),[15],-0.183
same,glycan array binding signal (z-score),[16],-0.159
same,glycan array binding signal (z-score),GlcNAc(b1-3)Gal,-0.268
same,glycan array binding signal (z-score),[17],-0.256
same,glycan array binding signal (z-score),GlcNAc(b1-3)Gal(b1-4)Glc,-0.273
same,glycan array binding signal (z-score),[18],-0.266
same,glycan array binding signal (z-score),[19],-0.275
same,glycan array binding signal (z-score),GlcNAc(b1-3)GalNAc,-0.295
same,glycan array binding signal (z-score),GlcNAc(b1-3)Man,-0.263
same,glycan array binding signal (z-score),[20],-0.216
same,glycan array binding signal (z-score),[21],-0.282
same,glycan array binding signal (z-score),[22],-0.267
same,glycan array binding signal (z-score),[23],-0.317
same,glycan array binding signal (z-score),[24],-0.273
same,glycan array binding signal (z-score),GlcNAc(b1-4)GlcNAc,-0.176
same,glycan array binding signal (z-score),[25],-0.158
same,glycan array binding signal (z-score),[26],-0.264
same,glycan array binding signal (z-score),[27],-0.227
same,glycan array binding signal (z-score),[28],-0.264
same,glycan array binding signal (z-score),[29],-0.291
same,glycan array binding signal (z-score),GlcNAc(b1-6)GalNAc,-0.244
same,glycan array binding signal (z-score),GlcNAc3Prop(b1-4)GlcNAc,-0.246
same,glycan array binding signal (z-score),[30],-0.088
